Results reported in PMC4336329 (PLoS ONE, 2015).
The whole screen tested about 310,000 compounds, of which about 14,000 (4.5%) showed an effect of 50% or more. Effects have a minus sign here. This is one part of the list.

biological target: human ether-à-go-go-related gene (hERG) potassium channel (human, UniProt Q12809); assay: primary screen, population patch clamp on CHO cells stably expressing hERG
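Also: peak tail current of the secondary pulse compared with the same well before compound.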

human ether-à-go-go-related gene (hERG) potassium channel, sequence (Q12809 whole entry, looked up): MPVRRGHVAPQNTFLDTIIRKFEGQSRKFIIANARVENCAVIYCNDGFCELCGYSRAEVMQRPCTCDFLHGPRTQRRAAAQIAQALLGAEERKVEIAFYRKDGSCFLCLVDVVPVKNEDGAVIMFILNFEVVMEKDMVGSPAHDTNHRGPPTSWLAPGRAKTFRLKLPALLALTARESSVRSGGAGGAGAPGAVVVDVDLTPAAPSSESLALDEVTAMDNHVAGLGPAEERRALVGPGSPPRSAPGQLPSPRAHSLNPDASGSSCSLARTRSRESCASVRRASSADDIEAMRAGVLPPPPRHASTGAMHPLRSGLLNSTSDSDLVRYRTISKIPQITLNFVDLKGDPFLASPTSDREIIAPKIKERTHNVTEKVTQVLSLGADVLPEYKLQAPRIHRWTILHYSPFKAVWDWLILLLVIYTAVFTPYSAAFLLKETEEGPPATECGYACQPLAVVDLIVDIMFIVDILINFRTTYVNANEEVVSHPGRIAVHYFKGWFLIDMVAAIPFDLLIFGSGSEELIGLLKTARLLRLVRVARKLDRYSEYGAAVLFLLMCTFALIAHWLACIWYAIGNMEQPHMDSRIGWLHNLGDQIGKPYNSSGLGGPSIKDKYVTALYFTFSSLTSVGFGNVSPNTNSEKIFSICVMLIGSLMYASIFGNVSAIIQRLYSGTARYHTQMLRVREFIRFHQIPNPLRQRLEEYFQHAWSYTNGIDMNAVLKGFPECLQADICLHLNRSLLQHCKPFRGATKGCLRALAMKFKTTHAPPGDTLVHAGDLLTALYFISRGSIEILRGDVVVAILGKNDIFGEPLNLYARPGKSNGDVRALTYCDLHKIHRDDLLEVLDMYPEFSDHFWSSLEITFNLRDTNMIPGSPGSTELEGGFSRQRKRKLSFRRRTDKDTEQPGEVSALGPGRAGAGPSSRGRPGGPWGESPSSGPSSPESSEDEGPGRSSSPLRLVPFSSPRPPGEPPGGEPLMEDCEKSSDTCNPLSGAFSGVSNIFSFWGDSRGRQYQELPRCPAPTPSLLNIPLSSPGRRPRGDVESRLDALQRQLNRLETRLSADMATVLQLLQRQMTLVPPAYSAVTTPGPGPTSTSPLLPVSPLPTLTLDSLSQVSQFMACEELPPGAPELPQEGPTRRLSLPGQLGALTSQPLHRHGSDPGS

Compound | hERG current change (%, negative = inhibition) at 10uM [%]
CC(=O)c1ccc(N(C(=O)CNC(=O)c2ccco2)C(C(=O)NC2CCCC2)c2cccnc2)cc1 (stereo not shown) | 5.51
CCn1nc(C)c(CN2CCCC(CNS(=O)(=O)c3ccc(OC)cc3)C2)c1C (stereo not shown) | -14.7
Cc1ccc(OCC(=O)Nc2ccc(S(=O)(=O)Nc3cc(C)nc(C)n3)cc2)c(C)c1 | -21.2
Cc1ccccc1C(=O)Nc1ccccc1C(=O)N/N=C\c1ccco1 | 2.6
O=C(CCN1C(=O)CSc2ccccc21)Nc1ccc(OC(F)(F)F)cc1 | -31
O=C(NCc1ccco1)c1cnc2sccn2c1=O | 7.4
CCCCn1c(N)c(N(CC(C)C)C(=O)CN(C)S(=O)(=O)c2ccc(F)cc2)c(=O)[nH]c1=O | -13.5
O=C(O)C1CCN(C(=O)c2ccco2)CC1 | 9.94
O=C(NCc1ccc(Cl)cc1)c1ccc(CSc2nc3ccncc3[nH]2)cc1 | 20.4
COC(=O)C(C)n1cnc2c(nnn2-c2cccc(OC)c2)c1=O (stereo not shown) | 9.89
Cc1ccn2c(=O)c(C(=O)NCCCN3CCCC3=O)c(O)nc2c1 | 27.6
CC1(C)CCC[C@]2(C)C(CS(=O)c3ccccc3)=C(C=O)CC[C@@H]12 (stereo partly shown) | -7.28
COc1ccc(NC(=O)CSCC(=O)Oc2c(OC)cccc2OC)cc1 | -3.97
CSc1oc(-c2ccco2)nc1S(=O)(=O)c1ccccc1 | 0.571
CCN(CC)CCNS(=O)(=O)c1ccc2[nH]cc(C(=O)O)c(=O)c2c1 | 9.99
COc1cc(CNCCc2ccccc2)cc(Cl)c1OCc1ccccc1.Cl | -18.7
Cc1ccc(C(=O)C(OC(=O)CN2C(=O)c3ccccc3C2=O)c2ccccc2)cc1C (stereo not shown) | 11.5
O=c1c2ccccc2ncn1-c1ccc([N+](=O)[O-])cc1Cl | -6.09
Cc1cc(SCC(=O)Nc2cccnc2Cl)nc2ccccc12 | 7.39
CC1CCCN(C(=O)Cc2ccc(F)cc2)C1 (stereo not shown) | 5.82
OCCNC(=S)NCc1ccccc1 | 0.684
Cc1cc(C(=O)CSc2nnc(N)s2)c(C)n1-c1c(C)n(C)n(-c2ccccc2)c1=O | -2.2
COc1cc(C2NC(=S)NC3=C2C(=O)CCC3)ccc1O (stereo not shown) | 15.2
c1cncc(-c2ccc3[nH]ccc3c2)c1 | -7.45
COc1ccc(OC)c(S(=O)(=O)Nc2ccccc2O)c1 | 0.776
